The text below walks through data of the supplement of paper PMC11417369.

The list shows a part of the results.

This experiment deals with PfSIP2 AP2 domain 1 (GST-tagged). Put plainly: gcPBM binding intensity (ln(normalized median fluorescence intensity)); higher = stronger DNA binding. An outline of the steps:
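Binding intensity is defined as the maximum Masliner-normalised natural-log median intensity across replicate spots for either probe orientation. It was measured on an Agilent 4 × 180k array of primer-extended double-stranded 36-bp intergenic genomic probes and negative controls, to which GST-tagged P. falciparum DNA-binding domains made in E. coli were applied for 1 h in 1× PBS with 1% milk, 0.2 mg/ml BSA, 0.5% salmon testes DNA and 0.03% Triton X-100. Detection was by Alexa488 anti-GST antibody and scanning at 488 nm.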
“TTCTAACTTTTAAACACACAAATATAAATAAGTATA [CACACA_site7473]”: the “gcPBM binding intensity (ln)” value amounted to 6.96. With “GAACGTATCATGTGTACACACAAATTGTTTTTTTTT [CACACA_site2020]” the figure was 7.03.

Turning to “AAGAATAATAATAAATGTACACAATATTATATATAT [XGTACX_site5525]”, the “gcPBM binding intensity (ln)” value was 7.65. Turning to “AAATGAACAAGTGGCACACACACATTATAACTAATT [CACACA_site9048]”, the “gcPBM binding intensity (ln)” value was determined as 7.04. TGCAAGCTTATATAGGTGCACATGTATACGTGTTCA: the “gcPBM binding intensity (ln)” value turned out to be 11.3. The same measure for “TATATACACAAACACACACACACATACACCCACATA [CACACA_site8504]”: 7.21; for “TATTAAAATTAAAAAAAAAAAAAAAAGCAATAAAAA [XGTACX_negctrl_site426]”: 6.54; for “TATGTAGTCACAAGGTGTACACTTTAACAAATTATG [XGTACX_site8792]”: 7.23. The same measure for “TGATTCTTTTGTATCACACACACTTAGTTTAATTTT [CACACA_site2404]”: 6.85. As to “ACTTGACACGGACACACACACATATATAAAAAAAAA [CACACA_site4576]”, the “gcPBM binding intensity (ln)” value was found to be 7.78. Turning to “TTTTTTTATTATCATGCACACATTTTTTTTTTTTAC [CACACA_site2253]”, the “gcPBM binding intensity (ln)” value came out at 7.42.

Regarding “TCCTTTATTTTTAAATGTACAAATATTATCTCCTCA [XGTACX_site5856]”, the “gcPBM binding intensity (ln)” value amounted to 7. For “ATAATAAAAATAAGAGAATAAAAATGCAATTTAATG [CACACA_negctrl_site878]”, the “gcPBM binding intensity (ln)” value was determined as 6.81.

Regarding “AACTCACATAAATTCACACAAATGTATATTCATATA [CACACA_site4554]”, the “gcPBM binding intensity (ln)” value stood at 6.94. With “ATTTATAATGTGTATACACACATATATAGATTTGCT [CACACA_site6440]” the figure was 6.87. With “ATTGATCGGATAAAATGTACAAATATATATATATAT [XGTACX_site7345]” the figure was 9.15; with “AAATTATAATATAATACACACATAAAAAAAAAATCA [CACACA_site3634]”, 6.88. With “TATATATATATATATTGTACACATATATATTTACGA [XGTACX_site4791]” the figure was 9.46; with “AAAAAATAATAAATCACACATATTATATATATATAT [CACACA_site5838]”, 9.23. As to “AACATGAAAGATAGCAAAAAAAAAAAAAAAAAAAAA [TGCATGCA_negctrl_site607]”, the “gcPBM binding intensity (ln)” value was 6.87. With “TCTTTTTTTATTTTATTTTTTTTTTTTAAATAATTC [TGCATGCA_negctrl_site372]”, the “gcPBM binding intensity (ln)” value is 6.71. For “CATATTAATATTATGGGTACATATAAATTTACATTC [XGTACX_site687]”, the “gcPBM binding intensity (ln)” value amounted to 7.13. With “ATTATAATATTGTTATGTACATAAAAATTATTGAAT [XGTACX_site4476]” the figure was 7.37. For the sequence “AAAACATAAATACATACACACATAATATATATTAAT [CACACA_site109]”, the “gcPBM binding intensity (ln)” value is 7.06. Regarding “ATAATATATTTATAATGTACATAAGAACAAATTAAA [XGTACX_site1745]”, the “gcPBM binding intensity (ln)” value is 7.09. The same measure for “GGTATATTAAAATAGGTGCATAAAACTAAGAGAAAA [GTGCAC_site9781]”: 11; for “ACGTTTGATACACATAAAGTTTTCCTTTGAATGTAC [CACACA_negctrl_site106]”: 7.08.

On to “AAAAATTACCTGACTTGTACATAATTTAAGAACAAT [XGTACX_site6233]”, for which the “gcPBM binding intensity (ln)” value is 7.01. The same measure for “TGTGCTATATTCATATGTACATATAATTATTATATA [XGTACX_site3549]”: 7.3; for “ATAAAATAAAAGTGTACACAAGAAAATATGTTATGT [CACACA_site6033]”: 7.44. The same measure for “AATAATACACAATTTTGTACGTATTTAAAATATATT [XGTACX_site45]”: 7.38; for TATTTATGAGAAATAGTGCAAAGATATGATCTTTAA: 8.12; for “AATTAAAAACATTTCACACATAAAAATGAAATATAT [CACACA_site5199]”: 6.77. Regarding “TAAAATATATAATAATGTACATATTTTTATTTAGGA [XGTACX_site4987]”, the “gcPBM binding intensity (ln)” value is 6.84. The same measure for “TTCAATTTTTTATGAACACACAAAAAAAAAAAAAAA [CACACA_site2533]”: 7; for “ACATAATTAACAAATACACACACACCCACCCACAAA [CACACA_site8069]”: 7.25. For the sequence “ATATATAAGGATGTCACACATAAATATTAACACTAA [CACACA_site5101]”, the “gcPBM binding intensity (ln)” value was 7.06. With “AAGAAAAAATATATATATATATATATATATAATATG [TGCATGCA_negctrl_site417]” the figure was 8.04; with “TTATATTATTTTTATACATGCATTTCTATATATTTT [TGCATGCA_site164]”, 7.31; with “TATATTAAATAAAAAGTGCATGTCTCATAAGATGGA [GTGCAC_site9520]”, 8.49. Consider “TATAAATAAAGCAGTACACACATTTATTTTAGATAC [CACACA_site7566]”, for which the “gcPBM binding intensity (ln)” value came out at 7.14. Regarding “ATAAAATGTTAAGGGTGTACTTTACACATCTCCTAT [XGTACX_site4699]”, the “gcPBM binding intensity (ln)” value stood at 6.98. In the case of “ATAGGGAATTTATGCACACAGTTAAGGGGGAAAATT [CACACA_site5183]”, the “gcPBM binding intensity (ln)” value was found to be 7.85. Turning to “TTTATACTATAATTATGTACTTATAAAAGGAATAAA [XGTACX_site8027]”, the “gcPBM binding intensity (ln)” value amounted to 7.42.

“ATAAACACATCTATATGTACATATATATATATATAC [XGTACX_site347]”: the “gcPBM binding intensity (ln)” value is 7.35.

As to “ATGTAAATACATATATGTACACAAATATATATATAT [XGTACX_site3537]”, the “gcPBM binding intensity (ln)” value came to 9.45. As for “TATATAAATATACATTGTACTCAACATTTTCATTAA [XGTACX_site3690]”, the “gcPBM binding intensity (ln)” value was 6.99. Turning to “TGTATTAATAAAAATACACACATCATATTATAGAAA [CACACA_site7629]”, the “gcPBM binding intensity (ln)” value was 6.96.

Regarding “TATAAGATTATACAAAGTACATATAAATAATATATT [XGTACX_site1917]”, the “gcPBM binding intensity (ln)” value was found to be 6.76. Regarding “ATATATATATAAATATGTACATATATATATTATATA [XGTACX_site120]”, the “gcPBM binding intensity (ln)” value turned out to be 8.65.

For the sequence “TTAAAAAAAGATTATACACACACATATATAAACATA [CACACA_site8136]”, the “gcPBM binding intensity (ln)” value was 7.05.

As to “TCCTCTTTTATTTTTACACACGCGTAAACATATATA [CACACA_site667]”, the “gcPBM binding intensity (ln)” value came out at 7.65. With “TGAAATAAAAAATATAGTACTCGTTCGTAACCAAAA [XGTACX_site413]”, the “gcPBM binding intensity (ln)” value amounted to 7.12.

Take “ATGGGTTAAAAATGCACACAAAAAAATATACAGATA [CACACA_site4321]”: the “gcPBM binding intensity (ln)” value is 7.79.

On to “TTATATATATTTAAAAAAATAACATAAATAAATAAA [CACACA_negctrl_site347]”, for which the “gcPBM binding intensity (ln)” value came out at 6.91. For the sequence “TTAAATAAAAGGTTTAGTACTTAAAATAAGAAATGA [XGTACX_site6341]”, the “gcPBM binding intensity (ln)” value stood at 6.91. As to “GTAAATATAAACTCAGCACACAAACATATATATGTC [CACACA_site9326]”, the “gcPBM binding intensity (ln)” value turned out to be 6.92. With “CACTTTTTTTTTTACTGTACATATACAAATTAAAAA [XGTACX_site1565]” the figure was 7.37; with “TTTTATTTATCTTAATGTACACATTTATATATATAT [XGTACX_site8588]”, 9.14. “TATAATAATTAAAAGTGTACTAAATTTTTACATATA [XGTACX_site2523]”: the “gcPBM binding intensity (ln)” value was found to be 6.94. As for “TGGGTGTAGAACAATTGTACTTTGTAAAAATATAAG [XGTACX_site8464]”, the “gcPBM binding intensity (ln)” value was determined as 6.96. The same measure for “TTTTTTTTCAATGGTTGTACAAAGTAAAACAACAAA [XGTACX_site1582]”: 7.2. In the case of “ATCCATCTTTTAATTTGTACTTATTCTTTTTTCTTT [XGTACX_site5299]”, the “gcPBM binding intensity (ln)” value amounted to 7.04. As to “ATTAGTTTTATATATAGTACATATAATTTTGAAGGT [XGTACX_site7445]”, the “gcPBM binding intensity (ln)” value is 7.53. With “ATATATATATGTAATAGTACATATGATAGTTTGTCA [XGTACX_site1545]” the figure was 9.

On to “TTGTAATTTATTCAAACACACAATTTGGACCTTTTT [CACACA_site1063]”, for which the “gcPBM binding intensity (ln)” value amounted to 6.7. With “TATTCATAATTTTAATGTACAAAATGGTTTGTAATA [XGTACX_site8493]” the figure was 6.82. With “AAAGATAAATTAAAAAGTACATATTTATTCAATGTA [XGTACX_site8543]” the figure was 6.86; with “TATGATATATATAATACACACATATACATAAGATCT [CACACA_site1119]”, 6.94. For the sequence “AATATATATATATTATCACACACTCACGTTTGACAA [CACACA_site8130]”, the “gcPBM binding intensity (ln)” value was 7.22. Take “TAAAAAAAACGAACAAGTACACATAAAAAAAAATTA [XGTACX_site5982]”: the “gcPBM binding intensity (ln)” value was 6.9. The same measure for “ATTATATCATATATATGTACACATATATAACATGAT [XGTACX_site7]”: 7.18; for “ACAATATATAAAATATGTACATAATATATATAATGA [XGTACX_site8731]”: 7.03; for CCTAATTTTATTAGGGTGCATTTTTAGTTAAATATA: 11.2. With “TAAGTTATATGTACTACACACGTACACAAAATAAGA [CACACA_site9237]” the figure was 7.39; with “ATCCACAAATTAACAAGTACATATATATATATATAT [XGTACX_site1267]”, 9.83. With “TGATGAAAATTTTTCTGTACAAAAAGTATGAAGGTA [XGTACX_site8901]” the figure was 7.51; with “AATTTAATATAATGCACACATAAAAAAAAATTCAAA [CACACA_site2062]”, 7.16. As to “ATGAAAACCATGACGGGTACTCATTTATTATTTTAT [XGTACX_site6724]”, the “gcPBM binding intensity (ln)” value worked out at 6.52.

As to “ATTTATTTGTTTATTTGTTTATTTGTTTATTTGTTT [CACACA_negctrl_site1386]”, the “gcPBM binding intensity (ln)” value worked out at 7.1. “TTAAGAATCTATACTAGTACATATATGTATACAAGC [XGTACX_site8025]”: the “gcPBM binding intensity (ln)” value amounted to 6.95. Take “ATTGTGTTAATAAAATGTACATTTTCTCTACTTTAA [XGTACX_site1199]”: the “gcPBM binding intensity (ln)” value came out at 6.95. With “TGTAGAACAAAAAATTGTACATATTTGTAAAAAAAA [XGTACX_site3850]” the figure was 6.85; with “TATATATATATGTGTAGTACAACAAATATGAAAAAT [XGTACX_site4059]”, 8.79.

For the sequence “GTATATATATATAAAAGTACATGTTATGAAAAAAAA [XGTACX_site5410]”, the “gcPBM binding intensity (ln)” value was found to be 7.15. Consider “TATATATAGAAACACACACACATATATATATATATA [CACACA_site773]”, for which the “gcPBM binding intensity (ln)” value came to 9.29.

Take “TTTTTTCTCAAAAAAAAAACCTATGGTTATTAAGAT [XGTACX_negctrl_site534]”: the “gcPBM binding intensity (ln)” value came to 6.77.

“ATTAAGTATATTTCTGCACACAAAAAAAAAAACCAA [CACACA_site9342]”: the “gcPBM binding intensity (ln)” value was determined as 7.39. “TTATAATTCTATTATCTGTTCTTTTTATATTTTTTT [CACACA_negctrl_site855]”: the “gcPBM binding intensity (ln)” value was found to be 6.54.
